# Experimental data as given in the supplement of paper PMC10037445.
# The full ranking holds about 2,900 compounds; the median of “NF-kB SEAP reporter activity, fold change vs agonist alone” is about 0.99, and the highest 2% start at about 2.6. The list shows a part of the results.
# What was measured:
# RAW-Dual [1] = test: NF-kB SEAP reporter activity, fold change vs agonist alone; cytotoxicity flag (confluency mask): not cytotoxic; higher = enhanced NF-kB activity
# In short: (§1)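 RAW-Dual macrophages were seeded in DMEM at 50,000 cells/well in 384-well plates, given 50 nL of library stock by pin tool, and given a PRR agonist 1 h later. Plates were held at 37 °C, 5% CO2 for 20 hours, after which supernatant was read for IRF by QuantiLuc luminescence and for NF-κB by QuantiBlue absorbance at 620 nm. Reporter activity is expressed as fold change over wells that received agonist alone. A well was called cytotoxic when IncuCyte confluency fell below 70% of agonist controls in both mask sets.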
# RAW-Dual [2] = test: NF-kB SEAP reporter activity, fold change vs agonist alone; higher = enhanced NF-kB activity; details: library stock concentration (final ~1000-fold dilution): 10 mM
# In short: as §1
# RAW-Dual [3] = test: NF-kB SEAP reporter activity, fold change vs agonist alone; cytotoxicity flag (confluency mask): cytotoxic (confluency <70% of control); higher = enhanced NF-kB activity
# In short: as §1
# [4] = agonist: ODN 1826 (TLR9) 0.5 ug/mL
# [5] = agonist: Pam2CSK4 (TLR2/6) 0.1 ug/mL
# [6] = agonist: Pam3CSK4 (TLR2/1) 0.1 ug/mL
# [7] = cytotoxicity flag (confluency mask): not cytotoxic, agonist: Imiquimod (TLR7) […]
# [8] = cytotoxicity flag (confluency mask): not cytotoxic, agonist: MPLA (TLR4) […]
smiles,measurement,setting,value
O=c1cc(-c2ccc(O)cc2)oc2c(C3OCC(O)C(O)C3O)c(O)c(C3OC(CO)C(O)C(O)C3O)c(O)c12 (stereo unspecified) (library stock concentration (final ~1000-fold dilution): 10 mM),NF-kB SEAP reporter activity,RAW-Dual [1]; agonist: LPS (TLR4) 0.1 ug/mL,1.45
same,NF-kB SEAP reporter activity,RAW-Dual [1]; [4],1.03
same,NF-kB SEAP reporter activity,RAW-Dual [1]; [5],1.08
same,NF-kB SEAP reporter activity,RAW-Dual [1]; [6],1.08
O=c1cc(-c2ccc(O)cc2)oc2c(C3OCC(O)C(O)C3O)c(O)c(C3OC(CO)C(O)C(O)C3O)c(O)c12 (stereo unspecified),NF-kB SEAP reporter activity,RAW-Dual [2]; [7],1.02
same,NF-kB SEAP reporter activity,RAW-Dual [2]; [8],1.05
Cc1ccc(-c2ncc(Cl)cc2-c2ccc(S(C)(=O)=O)cc2)cn1 (library stock concentration (final ~1000-fold dilution): 10 mM),NF-kB SEAP reporter activity,RAW-Dual [1]; agonist: LPS (TLR4) 0.1 ug/mL,1.28
same,NF-kB SEAP reporter activity,RAW-Dual [1]; [4],1
same,NF-kB SEAP reporter activity,RAW-Dual [1]; [5],0.96
same,NF-kB SEAP reporter activity,RAW-Dual [1]; [6],0.856
Cc1ccc(-c2ncc(Cl)cc2-c2ccc(S(C)(=O)=O)cc2)cn1,NF-kB SEAP reporter activity,RAW-Dual [2]; [8],1.05
CCOCCn1c(N2CCCN(C)CC2)nc2ccccc21.O=C(O)/C=C/C(=O)O.O=C(O)/C=C/C(=O)O,NF-kB SEAP reporter activity,RAW-Dual [2]; [7],1.11
same,NF-kB SEAP reporter activity,RAW-Dual [2]; [8],1.1
CCOCCn1c(N2CCCN(C)CC2)nc2ccccc21.O=C(O)/C=C/C(=O)O.O=C(O)/C=C/C(=O)O (library stock concentration (final ~1000-fold dilution): 10 mM),NF-kB SEAP reporter activity,RAW-Dual [1]; agonist: LPS (TLR4) 0.1 ug/mL,0.921
same,NF-kB SEAP reporter activity,RAW-Dual [1]; [4],0.836
same,NF-kB SEAP reporter activity,RAW-Dual [1]; [5],1.06
same,NF-kB SEAP reporter activity,RAW-Dual [1]; [6],0.773
CC(=O)NCC(=O)O.CC(=O)NCC(=O)O.N=C(N)c1ccc(N=NNc2ccc(C(=N)N)cc2)cc1,NF-kB SEAP reporter activity,RAW-Dual [2]; [7],0.718
same,NF-kB SEAP reporter activity,RAW-Dual [2]; [8],0.922
CC(=O)NCC(=O)O.CC(=O)NCC(=O)O.N=C(N)c1ccc(N=NNc2ccc(C(=N)N)cc2)cc1 (library stock concentration (final ~1000-fold dilution): 10 mM),NF-kB SEAP reporter activity,RAW-Dual [1]; agonist: LPS (TLR4) 0.1 ug/mL,0.908
same,NF-kB SEAP reporter activity,RAW-Dual [1]; [4],0.922
same,NF-kB SEAP reporter activity,RAW-Dual [1]; [5],1.18
same,NF-kB SEAP reporter activity,RAW-Dual [1]; [6],1.23
O=C(c1cc(-c2cc3c(cc2C(=O)N2Cc4ccccc4CC2CN2CCOCC2)OCO3)n2c1CCCC2)N(c1ccccc1)c1ccc(O)cc1 (stereo unspecified),NF-kB SEAP reporter activity,RAW-Dual [2]; [7],0.848
same,NF-kB SEAP reporter activity,RAW-Dual [2]; [8],1.17
O=C(c1cc(-c2cc3c(cc2C(=O)N2Cc4ccccc4CC2CN2CCOCC2)OCO3)n2c1CCCC2)N(c1ccccc1)c1ccc(O)cc1 (stereo unspecified) (library stock concentration (final ~1000-fold dilution): 10 mM),NF-kB SEAP reporter activity,RAW-Dual [1]; agonist: LPS (TLR4) 0.1 ug/mL,0.752
same,NF-kB SEAP reporter activity,RAW-Dual [1]; [4],0.499
same,NF-kB SEAP reporter activity,RAW-Dual [1]; [5],0.22
same,NF-kB SEAP reporter activity,RAW-Dual [1]; [6],0.326
CC(C)OC(=O)C(C)NP(=O)(OCC1OC(n2ccc(=O)[nH]c2=O)C(C)(F)C1O)Oc1ccccc1 (stereo unspecified) (library stock concentration (final ~1000-fold dilution): 10 mM),NF-kB SEAP reporter activity,RAW-Dual [1]; agonist: LPS (TLR4) 0.1 ug/mL,1.33
same,NF-kB SEAP reporter activity,RAW-Dual [1]; [4],1.07
same,NF-kB SEAP reporter activity,RAW-Dual [1]; [5],1.14
same,NF-kB SEAP reporter activity,RAW-Dual [1]; [6],1.08
CC(C)OC(=O)C(C)NP(=O)(OCC1OC(n2ccc(=O)[nH]c2=O)C(C)(F)C1O)Oc1ccccc1 (stereo unspecified),NF-kB SEAP reporter activity,RAW-Dual [2]; [7],1.06
same,NF-kB SEAP reporter activity,RAW-Dual [2]; [8],0.991
O=C(/C=C/c1cccnc1)c1ccncc1,NF-kB SEAP reporter activity,RAW-Dual [2]; [7],0.871
same,NF-kB SEAP reporter activity,RAW-Dual [2]; [8],0.953
O=C(/C=C/c1cccnc1)c1ccncc1 (library stock concentration (final ~1000-fold dilution): 10 mM),NF-kB SEAP reporter activity,RAW-Dual [1]; agonist: LPS (TLR4) 0.1 ug/mL,1.03
same,NF-kB SEAP reporter activity,RAW-Dual [1]; [4],0.938
same,NF-kB SEAP reporter activity,RAW-Dual [1]; [5],1.21
same,NF-kB SEAP reporter activity,RAW-Dual [1]; [6],1.05
O=C1C(CCC(O)c2ccc(F)cc2)C(c2ccc(O)cc2)N1c1ccc(F)cc1 (stereo unspecified) (library stock concentration (final ~1000-fold dilution): 10 mM),NF-kB SEAP reporter activity,RAW-Dual [1]; agonist: LPS (TLR4) 0.1 ug/mL,1.42
same,NF-kB SEAP reporter activity,RAW-Dual [1]; [4],0.665
same,NF-kB SEAP reporter activity,RAW-Dual [1]; [5],0.889
same,NF-kB SEAP reporter activity,RAW-Dual [1]; [6],0.589
O=C1C(CCC(O)c2ccc(F)cc2)C(c2ccc(O)cc2)N1c1ccc(F)cc1 (stereo unspecified),NF-kB SEAP reporter activity,RAW-Dual [2]; [7],0.952
same,NF-kB SEAP reporter activity,RAW-Dual [2]; [8],1.38
OCC1=CC(O)C2C=COC(OC3OC(CO)C(O)C(O)C3O)C12 (stereo unspecified) (library stock concentration (final ~1000-fold dilution): 10 mM),NF-kB SEAP reporter activity,RAW-Dual [1]; agonist: LPS (TLR4) 0.1 ug/mL,1.02
same,NF-kB SEAP reporter activity,RAW-Dual [1]; [4],1.06
same,NF-kB SEAP reporter activity,RAW-Dual [1]; [5],0.976
same,NF-kB SEAP reporter activity,RAW-Dual [1]; [6],0.982
OCC1=CC(O)C2C=COC(OC3OC(CO)C(O)C(O)C3O)C12 (stereo unspecified),NF-kB SEAP reporter activity,RAW-Dual [2]; [8],0.996
COC1CCN(C(=O)c2cc(Cc3n[nH]c(=O)c4ccccc34)ccc2F)CC1,NF-kB SEAP reporter activity,RAW-Dual [2]; [7],1.12
same,NF-kB SEAP reporter activity,RAW-Dual [2]; [8],1.27
COC1CCN(C(=O)c2cc(Cc3n[nH]c(=O)c4ccccc34)ccc2F)CC1 (library stock concentration (final ~1000-fold dilution): 10 mM),NF-kB SEAP reporter activity,RAW-Dual [1]; agonist: LPS (TLR4) 0.1 ug/mL,1.74
same,NF-kB SEAP reporter activity,RAW-Dual [1]; [4],1.11
same,NF-kB SEAP reporter activity,RAW-Dual [1]; [5],1.12
same,NF-kB SEAP reporter activity,RAW-Dual [1]; [6],1.78
c1cncc(CN2CCC(n3ncc4c(N5CCOCC5)nc(-c5ccc6[nH]ccc6c5)nc43)CC2)c1 (library stock concentration (final ~1000-fold dilution): 10 mM),NF-kB SEAP reporter activity,RAW-Dual [1]; agonist: LPS (TLR4) 0.1 ug/mL,2.91
COC(=O)CC(O)(CCCC(C)(C)O)C(=O)OC1C(OC)=CC23CCCN2CCc2cc4c(cc2C13)OCO4 (stereo unspecified),NF-kB SEAP reporter activity,"RAW-Dual [2]; cytotoxicity flag (confluency mask): cytotoxic (confluency <70% of control), agonist: Imiquimod (TLR7) […]",0.141
same,NF-kB SEAP reporter activity,"RAW-Dual [2]; cytotoxicity flag (confluency mask): cytotoxic (confluency <70% of control), agonist: MPLA (TLR4) […]",0.255
COC(=O)CC(O)(CCCC(C)(C)O)C(=O)OC1C(OC)=CC23CCCN2CCc2cc4c(cc2C13)OCO4 (stereo unspecified) (library stock concentration (final ~1000-fold dilution): 10 mM),NF-kB SEAP reporter activity,RAW-Dual [3]; agonist: LPS (TLR4) 0.1 ug/mL,0.397
same,NF-kB SEAP reporter activity,RAW-Dual [3]; [4],0.169
same,NF-kB SEAP reporter activity,RAW-Dual [3]; [5],0.0771
same,NF-kB SEAP reporter activity,RAW-Dual [3]; [6],0.133
COc1ccc(C[C@@H]2c3cc(Oc4cc(C[C@@H]5c6cc(OC)c(OC)cc6CCN5C)ccc4O)c(OC)cc3CCN2C)cc1,NF-kB SEAP reporter activity,RAW-Dual [2]; [7],0.915
same,NF-kB SEAP reporter activity,RAW-Dual [2]; [8],1.09
COc1ccc(C[C@@H]2c3cc(Oc4cc(C[C@@H]5c6cc(OC)c(OC)cc6CCN5C)ccc4O)c(OC)cc3CCN2C)cc1 (library stock concentration (final ~1000-fold dilution): 10 mM),NF-kB SEAP reporter activity,RAW-Dual [1]; agonist: LPS (TLR4) 0.1 ug/mL,1.06
same,NF-kB SEAP reporter activity,RAW-Dual [1]; [4],0.182
same,NF-kB SEAP reporter activity,RAW-Dual [1]; [5],0.121
same,NF-kB SEAP reporter activity,RAW-Dual [1]; [6],0.622
